# From PubChem BioAssay AID1468 (National Center for Advancing Translational Sciences (NCATS), 2008)
# Hit rate of the full screen: of about 280,000 compounds, about 1,100 (0.39%) were called active. This list was built around the results that the source calls inconclusive (neither active nor inactive); the mix of calls is not that of the screen. Calls follow the shape of the dose curve; as a rule, active = well fitted inhibition curve with a large enough effect; inconclusive = small, poorly fitted or top-dose-only effect, or effect the other way; inactive = flat fitted curve, though single readings scatter. Potencies of inconclusive entries are left out as doubtful fits.
# Target: Microtubule-associated protein tau (Homo sapiens) (UniProt P10636)
# Test: qHTS for Inhibitors of Tau Fibril Formation, Fluorescence Polarization; also: nearly all actives have a fitted effect of over 55% in size
# Conditions: K18 P301L tau heparin fibrillization, Alexa594 FP, 6 h; series mostly up to 57.7 µM; activity, negative = inhibition: at the top concentration
# How it was run: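 Recombinant K18 P301L […], labeled with Alexa 594 at 0.24 uM over 15 uM unlabeled; heparin inducer 20 uM final; 37 C, 6 hr; FP endpoint.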
# % is scaled to controls: 0 for no effect and ±100 for the full control effect; potency is read from the fitted curve at half-maximal effect; tags tell the direction and shape of the fitted curve.
# Chain of UniProt P10636 (P10636 whole entry, looked up): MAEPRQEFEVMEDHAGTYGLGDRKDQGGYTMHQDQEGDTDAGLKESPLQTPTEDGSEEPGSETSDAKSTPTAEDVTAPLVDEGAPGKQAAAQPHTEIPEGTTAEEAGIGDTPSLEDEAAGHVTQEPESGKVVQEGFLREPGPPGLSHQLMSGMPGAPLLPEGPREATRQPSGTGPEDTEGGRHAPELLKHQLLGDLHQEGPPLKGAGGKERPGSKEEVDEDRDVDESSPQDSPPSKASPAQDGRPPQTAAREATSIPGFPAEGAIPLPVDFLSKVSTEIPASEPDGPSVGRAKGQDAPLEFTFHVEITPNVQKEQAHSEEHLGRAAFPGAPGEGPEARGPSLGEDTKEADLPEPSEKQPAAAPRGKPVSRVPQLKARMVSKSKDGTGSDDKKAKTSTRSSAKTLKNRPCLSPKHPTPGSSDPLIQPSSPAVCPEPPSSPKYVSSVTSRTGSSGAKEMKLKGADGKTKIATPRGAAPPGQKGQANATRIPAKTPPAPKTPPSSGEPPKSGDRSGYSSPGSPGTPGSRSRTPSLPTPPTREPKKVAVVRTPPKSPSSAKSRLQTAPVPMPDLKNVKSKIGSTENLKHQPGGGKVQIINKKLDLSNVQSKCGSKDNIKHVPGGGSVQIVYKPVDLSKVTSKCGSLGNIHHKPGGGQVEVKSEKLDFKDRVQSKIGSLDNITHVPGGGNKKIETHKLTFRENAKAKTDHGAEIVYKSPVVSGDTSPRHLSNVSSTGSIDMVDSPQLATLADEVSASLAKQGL
Compound,"activity, negative = inhibition",Potency
Cc1ccc(-c2nnn(CC(=O)N(Cc3cccs3)C(C(=O)NC3CCCCC3)c3ccco3)n2)o1 (centres undefined),inactive: -7.9%,
Cc1ccsc1/C=N/n1c(-c2cccnc2)n[nH]c1=S,inactive: -2.18%,
O=c1[nH]cnc2cc(-c3ccccc3)sc12,,"inconclusive [inhibitor, partial curve, poor fit]"
Cc1sc(NC(=O)/C=C/c2ccco2)c(C(=O)O)c1C,inactive: -3.82%,
COc1ccc(NC(=O)CN2C(=O)COc3ccc(S(=O)(=O)N4CCCCCC4)cc32)cc1,,"inconclusive [inhibitor, full curve, poor fit]"
Cc1cc(C2=NNC(=NC3CC3)SC2)c(C)n1-c1ccccc1,inactive: -18.7%,
N#Cc1ccc(/C=N/NC(=O)c2cc(-c3cccs3)nc3ccccc23)cc1,,"inconclusive [inhibitor, single point]"
CC(C)(C)C(=O)NC(=S)Nc1cccc(C(=O)O)c1,inactive: -4.76%,
O=C(Nc1cccc(Cl)c1Cl)c1cc(S(=O)(=O)NCc2ccc3c(c2)OCO3)ccc1F,inactive: -12%,
Cc1ccc(CNc2ccc3c(c2)OCO3)cc1,,"inconclusive [inhibitor, single point]"
COc1cc(S(=O)(=O)NCc2ccccn2)c(OC)cc1Cl,inactive: 4.68%,
CCN1/C(=C/C(C)=C/c2sc3ccccc3[n+]2CC)Sc2ccccc21,,"inconclusive [inhibitor, single point]"
O=C(Nc1nc2n(n1)C(c1ccc(F)cc1)C=C(c1ccccc1)N2)c1ccco1 (centres undefined),inactive: 1.14%,
O=C(O)CC1S/C(=N/N=C/c2ccc(-c3ccccc3[N+](=O)[O-])o2)NC1=O (centres undefined),,"inconclusive [inhibitor, full curve]"
C[C@H]([C@H](C)N1CC(=O)NC(=O)C1)N1CC(=O)NC(=O)C1,,"inconclusive [inhibitor, partial curve]"
Cc1ccc(C)c(CN2C(=O)c3ccccc3S(=O)(=O)c3ccc(C(=O)NCCCN4CCCC(C)C4)cc32)c1 (centres undefined),,"inconclusive [inhibitor, partial curve, poor fit]"
COc1ccc(Cl)cc1NC(=O)CN(C)CC(=O)Nc1ccc(Br)cc1,,"inconclusive [inhibitor, partial curve]"
Cc1cn2c(=O)cc(COC(=O)c3cccc(NC(=O)c4ccccc4Cl)c3)nc2s1,,"inconclusive [inhibitor, partial curve]"
Cc1ccc(CNc2ncnc3c2nnn3C)cc1,,"inconclusive [inhibitor, single point]"
Cc1ccc(C(=O)N2CCSCC2)cc1,inactive: -1.74%,
O=C(COC(=O)c1ccccc1O)Nc1ccc(S(=O)(=O)N2CCCCC2)cc1,,"inconclusive [inhibitor, partial curve]"
COc1ccc(CNC(=O)c2ccc(N3CCCC3=O)cc2)cc1,inactive: 11.4%,
CCCSc1nsc(NC(=O)C(c2ccccc2)c2ccccc2)n1,,"inconclusive [inhibitor, single point]"

Compound,"activity, negative = inhibition",Potency
Cc1cc(=O)oc2cc(OC3C=CC(C#CC(C)(C)C)OC3CO)ccc12 (centres undefined),,"inconclusive [inhibitor, partial curve, poor fit]"
Cc1ccc(Cc2cnc(NC(=O)c3cccs3)s2)cc1,,"inconclusive [inhibitor, single point]"
CC(C)C(NS(=O)(=O)c1ccc2c(c1)oc(=O)n2C)C(=O)NCCc1ccccc1 (centres undefined),inactive: -8.13%,
Cc1ccc(C(c2cccc(Br)c2)c2c(C)[nH]c3ccccc23)s1 (centres undefined),,"inconclusive [inhibitor, single point]"
COc1cc(/C=C2/CCC/C(=C\c3cc(O)c(OC)c(Cl)c3)C2=O)cc(Cl)c1O,,"inconclusive [inhibitor, partial curve, poor fit]"
O=C(CN1CCCc2ccccc21)NCc1ccccc1Cl,,"inconclusive [inhibitor, single point]"
CCOC(=O)c1ccc(NC(=O)CSc2c3c(nc4cc(Cl)ccc24)CCCC3)cc1,,"inconclusive [inhibitor, partial curve]"
Cc1[nH][nH]c(=O)c1C(c1ccc(-c2ccc(C(=O)O)cc2)o1)c1c(C)[nH][nH]c1=O,,"inconclusive [inhibitor, partial curve]"
COc1cccc(NC(=O)CSc2nc3ccccc3c(=O)n2CCCC(=O)NCCCN2CCOCC2)c1,inactive: -1.75%,
O=C(Nc1ccc2c(c1)N(Cc1ccccc1)C(=O)c1ccccc1S2)NC1CC1,,active: 22.4 µM
CCC1CCCCN1S(=O)(=O)c1ccc(NC(=O)c2cccs2)cc1 (centres undefined),,"inconclusive [inhibitor, single point]"
O=C(Nc1ccc(F)c(Cl)c1)N1CC=C(c2c[nH]c3ccccc23)CC1,,"inconclusive [inhibitor, single point]"
COc1ccc(/C=N/NC(=O)c2ccncc2)cc1CSc1nc2ccccc2s1,,"inconclusive [inhibitor, single point]"
O=c1cc(-c2ccccc2)oc2cccc(O)c12,,"inconclusive [inhibitor, partial curve]"
CC(C)CN(C(=O)COC(=O)CNC(=O)c1ccc(Cl)cc1)C1CCS(=O)(=O)C1 (centres undefined),,"inconclusive [inhibitor, single point]"
COc1ccc(S(=O)(=O)Nc2ccc(S(=O)(=O)Nc3ccc(F)cc3)cc2)cc1C,,"inconclusive [inhibitor, partial curve, poor fit]"
COc1cccc(Cn2nnc3c(=O)[nH]c(C4CCN(C(=O)c5ccccc5Cl)CC4)nc32)c1,inactive: 11.2%,
CCc1ccc(NC(=O)C(C)n2nnc3sc(-c4ccccc4)cc3c2=O)cc1 (centres undefined),,"inconclusive [inhibitor, partial curve]"
CCOc1ccc(Nc2ncnc3c2cnn3Cc2ccccc2)cc1,,"inconclusive [activator, single point]"
Cc1ccc(S(=O)(=O)Oc2ccccc2/C=N/N=C(N)N)cc1,,"inconclusive [inhibitor, single point]"
CC1C/C(=C/c2ccco2)C(=O)/C(=C/c2ccco2)C1 (centres undefined),,"inconclusive [inhibitor, single point]"
COC(=O)CCSCC(=O)Nc1ccc(S(=O)(=O)N2CCOCC2)cc1OC,,"inconclusive [inhibitor, single point]"
CC(=O)c1ccc(Nc2nc(NCCO)nc(OC(C(F)(F)F)C(F)(F)F)n2)cc1,,"inconclusive [inhibitor, single point]"

Compound,"activity, negative = inhibition",Potency
CCN1C(=O)[C@H]2[C@H]3[C@H](O)[C@H](O)C/C(=N/OC[C@@H](O)COCc4ccco4)[C@H]3CC[C@@H]2C1=O,,"inconclusive [inhibitor, single point]"
CCOC(=O)CCn1c2nc(C)cc(C)c2c(=O)n1-c1ccccc1,,"inconclusive [activator, full curve, poor fit]"
Cc1csc2nc(COC(=O)c3ccccc3NC(=O)COc3ccccc3F)cc(=O)n12,inactive: -0.613%,
Cc1ccc(/C=C/C(=O)Nn2cnnc2)cc1,,"inconclusive [inhibitor, partial curve]"
C=CCN1CC(C)/C(=N\O)CC1C (centres undefined),,"inconclusive [inhibitor, single point]"
Cc1ccc(-n2c(=O)c3c4c(sc3n(Cc3cccc(Cl)c3)c2=O)CCC4)cc1C,inactive: -5.51%,
COc1ccccc1COC(=O)N/C=C/c1ccco1,,"inconclusive [inhibitor, single point]"
O=c1c2cn[nH]c2nc(SCc2cccc(Br)c2)n1-c1ccc(Cl)cc1,,"inconclusive [inhibitor, single point]"
O=C(NCC1CCCO1)c1cc2c(s1)CCC2 (centres undefined),inactive: -4.61%,
Cc1nc(Nc2ccc(Cl)cc2)cc(-c2ccccc2)n1,,active: 28.2 µM
Cc1cc(Br)ccc1S(=O)(=O)n1ccnc1C,inactive: 1.68%,
COc1cc(/C=C2\CCc3c2nc2ccccc2c3C(=O)O)cc(OC)c1OC,inactive: -10.6%,
O=[N+]([O-])c1cc(Cl)cc2c1nc(NCCO)c1ccccc12,,"inconclusive [inhibitor, partial curve]"
Cc1cc(O)cc(O)c1C(=O)OC1(C)C(=O)C=C2C=C(/C=C/CO)OC=C2C1=O (centres undefined),,"inconclusive [inhibitor, single point]"
O=C(c1ccco1)n1nc(-c2ccccc2)nc1NCc1ccc(F)cc1,,"inconclusive [inhibitor, single point]"
Cc1ccc(/C=N/n2c(-c3ccco3)n[nH]c2=S)cc1,inactive: 11.2%,
CN(C)CCCN(C(=O)c1cccs1)c1nc(-c2ccccc2)cs1,inactive: -11.5%,
COc1ccc(C(=O)N=c2nc3ccccn3s2)cc1,,"inconclusive [inhibitor, full curve]"
Cn1c(C(=O)NCc2ccccc2F)cc2oc3ccccc3c21,,"inconclusive [inhibitor, single point]"
CC(C)=NO[C@@H](C)CN1CCCCc2nc(C)c(C)cc21,inactive: 7.55% [at 11.6 µM],
Fc1ccc(C2c3cccn3CCN2C(=S)Nc2cccc(Br)c2)cc1 (centres undefined),,"inconclusive [inhibitor, single point]"
COc1ccc(C(=O)CSc2nc(-c3ccccn3)nc(C)c2Cl)cc1,inactive: 2.94%,
CCOC(=O)Cc1csc(NC(=O)Nc2cccc(Cl)c2)n1,,"inconclusive [inhibitor, partial curve]"
